This is an account of results in PubChem BioAssay AID488969 (Vanderbilt High Throughput Screening Facility, 2010).

Whole data set: some 110,000 compounds, median “z-score” near -0.1, cut for the highest 2% near 2. Some of the results follow.

In the assay the target is Metabotropic glutamate receptor 8 (Rattus norvegicus) (UniProt P70579). Description: rat mGluR8 modulators via GIRK flux, primary screen, cell-based, thallium flux, HTS (AID 488969). Particulars: HEK293 rat mGluR8, GIRK (G protein-gated inwardly rectifying potassium channel) thallium flux, FluoZin2; at 10 µM; stronger effect = higher value; submaximal glutamate (EC20) added with thallium.
Chain of UniProt P70579 (P70579 whole entry, looked up): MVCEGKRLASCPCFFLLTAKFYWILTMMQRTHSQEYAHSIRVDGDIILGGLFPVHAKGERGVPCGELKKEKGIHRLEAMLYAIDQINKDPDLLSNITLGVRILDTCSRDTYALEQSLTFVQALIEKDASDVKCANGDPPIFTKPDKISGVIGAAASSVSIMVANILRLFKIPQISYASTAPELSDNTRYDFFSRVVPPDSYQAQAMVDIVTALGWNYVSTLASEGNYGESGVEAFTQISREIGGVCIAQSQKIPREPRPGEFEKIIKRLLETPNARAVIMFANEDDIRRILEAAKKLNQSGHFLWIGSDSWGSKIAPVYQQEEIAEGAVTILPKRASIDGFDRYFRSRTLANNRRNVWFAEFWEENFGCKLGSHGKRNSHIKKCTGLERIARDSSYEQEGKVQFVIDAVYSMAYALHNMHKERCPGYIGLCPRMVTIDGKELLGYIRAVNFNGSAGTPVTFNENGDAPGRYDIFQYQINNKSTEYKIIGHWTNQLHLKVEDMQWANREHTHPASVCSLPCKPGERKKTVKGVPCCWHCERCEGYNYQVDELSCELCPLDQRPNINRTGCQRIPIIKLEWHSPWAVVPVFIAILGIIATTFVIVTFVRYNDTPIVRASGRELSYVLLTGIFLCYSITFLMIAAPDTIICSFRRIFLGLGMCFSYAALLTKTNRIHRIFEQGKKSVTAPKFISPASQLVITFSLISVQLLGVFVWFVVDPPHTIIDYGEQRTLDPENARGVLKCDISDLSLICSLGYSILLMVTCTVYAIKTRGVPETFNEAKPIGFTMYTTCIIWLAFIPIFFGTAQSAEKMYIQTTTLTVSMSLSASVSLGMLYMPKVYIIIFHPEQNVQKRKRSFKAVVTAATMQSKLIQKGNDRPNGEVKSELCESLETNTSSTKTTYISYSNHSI
As to `NC(=O)CSc1nc2sc(-c3ccccc3)cc2c(=O)n1N`, the z-score is -0.899.
Under `CCCN=Cc1c(CCC)[nH]n(-c2nc3ccccc3s2)c1=O` stands -0.961.
Under `COC(=O)c1c(NC(=O)CCC(=O)O)sc2c1CCCCC2` stands -0.271.
With `CCOC(=O)c1ccc(Nc2c(CC)c(C)nc3ncnn23)cc1`, the z-score was -0.346.
Under `COc1ccc(S(=O)(=O)Cc2ccc(C(=O)N3CCN(c4ccccn4)CC3)o2)cc1` stands -0.197.
Regarding `CCOc1cc(NC(=O)c2ccccn2)c(OCC)cc1NC(=O)CC(C)C`, the z-score is -0.376.
Turning to `CCOC(=O)C=C1CCN(c2ncc(C(F)(F)F)cc2Cl)CC1`, the z-score was -0.0961.
As to `COc1ccc(-c2ccc(-c3noc(-c4ccccc4C)n3)c(OC)n2)cc1`, the z-score turned out to be 0.972.
In the case of `CCCN1CCC2(CC1)C(C#N)=C(N)Oc1c2sc2nc(C)cc(C)c12` it was 0.127; in that of `COc1ccccc1N(CC(=O)N/N=C/c1ccc(OCC(=O)NCc2ccco2)cc1)S(=O)(=O)c1ccc(C)cc1`, -0.803.
In the case of `CCOc1cc(C(=O)Nc2ccc3c(c2)OCO3)ccc1OCCOc1ccccc1Cl` it was -0.142; in that of `Cn1c(=O)c2c(nc(N/N=C/c3ccc(OC(=O)c4ccco4)cc3)n2Cc2ccccc2Cl)n(C)c1=O`, -0.5.
`O=C(NCc1ccc2c(c1)OCO2)c1ccc2snnc2c1` came in with a z-score of 0.056.
For the compound `COc1ccc(-c2c(C#N)c(C)nc3c2C(=O)c2ccccc2-3)cc1`, the z-score is -0.139.
In the case of `O=C(Nc1ccccc1)c1cccnc1N1CCCC1` it was 0.569; in that of `COc1cccc(C(=O)NCCOc2cc(C)cc(C)c2)c1`, -0.17; in that of `Cn1c(C(=O)N2CCC(C(N)=O)CC2)cc2c(=O)n(C)c3ccccc3c21`, -1.06.
In the case of `CCCCCCNC(=O)Cc1c(O)c2ccccc2[nH]c1=O`, the z-score stood at 0.0939.
In the case of `CC(C)CC(C(=O)NC(=O)NCc1ccccc1)N1C(=O)c2ccccc2C1=O` (configuration not stated) it was 0.208.
Turning to `O=C(NCC(F)(F)F)N1CCOCC1`, the z-score is -0.169.
As for `COc1ccccc1C(=O)Oc1ccc(C(C)(C)C)cc1`, the z-score amounted to 0.143.
The compound `N#Cc1ccc2ccn(CC(=O)NC3CCCCCC3)c2c1` came in with a z-score of 0.0132.
`O=C(c1ccco1)N(Cc1ccc([N+](=O)[O-])cc1)c1ccc(Cl)cc1`: the z-score is -0.31.
In the case of `COc1ccc(S(=O)(=O)NCc2ccccc2)cc1` it was 0.172; in that of `c1ccc(-c2n[nH]c(-c3ccccn3)n2)nc1`, 0.0205.
In the case of `CCOc1ccc2nc(NC(=O)c3cnc(C)cn3)sc2c1` it was -0.079; in that of `CCOCCCNC(=O)c1ccc(NC(C)=O)cc1`, -0.0798.
The compound `Cc1ccc(C(=O)Nc2nc3nc(-c4ccccc4)cc(=O)n3[nH]2)cc1` displayed a z-score of 0.248.
As for `O=C(O)CCn1c2c(c3ccccc31)CCCC2`, the z-score is -0.105.
As to `CCN(CC)c1ccc(/C=N/N=C(c2ccccc2)c2ccccc2)c(O)c1`, the z-score is -0.147.
The compound `CCc1ccccc1N1C(=O)C2CC=CCC2C1=O` (configuration not stated) yielded a z-score of -0.529.
The compound `O=c1c2c3c(sc2ncn1/N=C/c1ccc([N+](=O)[O-])o1)CCCC3` displayed a z-score of -0.182.
`Cc1ccc(C)c(/C(O)=C2\C(=O)C(=O)N(CCCn3ccnc3)C2c2cccnc2)c1` (configuration not stated) came in with a z-score of 0.61.
In the case of `O=C(c1cc(-c2ccc3c(c2)OCO3)on1)N1CCOCC1` it was 0.561; in that of `Clc1ccc(-c2cc3ccccc3[nH]2)cc1`, -0.274.
In the case of `CCCS(=O)(=O)NCc1cn2cccc(C)c2n1` it was -0.145; in that of `CC(=C1C(=O)c2ccccc2C1=O)N1CCN(Cc2ccccc2)CC1`, -0.06.
`O=C(Nc1cccc(F)c1)c1c(F)c(F)c(F)c(F)c1F` yielded a z-score of -0.552.
Take `C=CCn1c(NCCO)nc2c1c(=O)n(C)c(=O)n2C`: the z-score came to 0.247.
In the case of `Cn1c(=O)c2c(nc(N3CCCCCC3)n2CCSc2nc3ccccc3o2)n(C)c1=O`, the z-score was -0.443.
In the case of `Cc1onc(-c2ccccc2)c1C(=O)NC(=S)NNC(=O)c1cccnc1` it was -0.0403.
The compound `Cc1cc(C)n(-c2nnc(SCC(=O)NC3CCCC3)c3ccccc23)n1` had a z-score of -1.07.
On to `CCc1c(C)nc(SC)n(CC#N)c1=O`, for which the z-score was -0.0371.
The compound `CC(=O)c1c(C)[nH]c(C(=O)NCc2ccccc2)c1C` gave a z-score of 0.037.
In the case of `CC1CC(C)CN(c2nc3c(c(=O)n(C)c(=O)n3C)n2CCSc2ncccn2)C1` (configuration not stated) it was 0.369; in that of `N#C/C(=C/c1cn(-c2ccccc2)nc1-c1cccc(OCc2ccccc2)c1)C(=O)NCCCn1ccnc1`, 0.0997.
In turn, `S=c1[nH]nc(-c2ccncc2)n1CC1CCCO1` (configuration not stated) gave a z-score of 0.903.
In the case of `O=C(O)CCC(=O)N1CCc2cc(S(=O)(=O)N3CCN(c4ccc(F)cc4)CC3)ccc21` it was -0.105; in that of `CCN1C(=O)C(O)(CC(=O)/C=C/C=C/c2ccccc2)c2ccccc21` (configuration not stated), -0.114.
Under `Cc1ccc(NC(=O)c2ccco2)c(NC(=O)c2cccs2)c1` stands 0.178; under `Cc1ccc(S(=O)(=O)N2CCCC(C(=O)Nc3ccc(NC(=O)c4ccccn4)cc3)C2)cc1` (configuration not stated), 0.114.
In the case of `CCOc1cc(C)nc(N2CCN(C3CCCCC3)CC2)n1` it was 0.806; in that of `COc1cc(/C=C/C(=O)Nc2nnc(C(C)(C)C)s2)cc(OC)c1OC`, -0.615.
On to `Cc1cc(/C=N\NC(=O)COc2cccc3cccnc23)c(C)n1-c1ccc(Br)cc1`, for which the z-score was -0.24.
In the case of `O=[N+]([O-])c1ccc2nc(SCc3ccccc3Cl)sc2c1` it was -0.183.
In turn, `CCCn1nnc(NC(=O)COc2ccc(C3CCCCC3)cc2)n1` showed a z-score of 2.04.
Under `c1ccc(-c2noc(CSc3nnnn3C3CCCCC3)n2)cc1` stands -0.0529; under `CC(=O)Nc1ccccc1Sc1ccc2c3c(cccc13)C(=O)N(c1ccc(C)cc1)C2=O`, -0.0506; under `COc1cccc(C2/C(=C(/O)c3ccc(C)cc3)C(=O)C(=O)N2Cc2ccco2)c1` (configuration not stated), -0.755.
In the case of `Cc1ccc(NC2=C(Cl)C(=O)OC2NC(=O)c2ccccc2)cc1` (configuration not stated) it was -0.201; in that of `COc1cccc(CN2C(=O)C3CCCN3c3ccc(S(=O)(=O)N4CCOCC4)cc32)c1` (configuration not stated), -0.0456; in that of `CCOC(=O)c1nnc2cc(-c3ccc(Br)cc3)nn2c1C`, 0.295.
In the case of `CCOc1cc(NC(=S)Nc2cccc(C)c2)c(OCC)cc1NC(=O)CC(C)C` it was -0.128.
Take `Fc1ccc(Nc2nc(-c3ccncc3)nc3ccccc23)cc1`: the z-score is -0.153.
In the case of `COc1ccc(C2C(=O)c3ccccc3C2=O)c(OC)c1` it was 0.409; in that of `CN(C)C(=O)N1CCC(C(=O)NC2CCCCCCC2)CC1`, 0.0301.
In turn, `COc1ccc(CCNS(=O)(=O)c2ccc(Cl)s2)cc1OC` came in with a z-score of 0.0415.
`Cc1csc2nc(CNS(=O)(=O)N(C)C)cn12` gave a z-score of -0.402.
As to `COC(=O)c1c(C(=O)OC)c(-c2ccccc2)n2c1CS(=O)(=O)C2`, the z-score was -0.0648.
Take `Cn1nc(C(=O)NCc2cccnc2)c2ccccc2c1=O`: the z-score is -0.0541.
Under `COC(=O)c1sc(NC(=O)CSc2nc3cccnc3n2C2CCCCC2)nc1C` stands 0.268; under `CCC(C)NC(=O)CO/N=C/c1ccc(C(=O)OC)cc1` (configuration not stated), -0.0741; under `COc1ccc(C(=O)N/C(=C\c2cccs2)c2nc3ccccc3[nH]2)cc1OC`, 0.0502.
Under `C=C(C)C1Cc2c(C)nn(-c3ccccn3)c2C1` (configuration not stated) stands -0.83.
Under `CCOC(=O)C1(C)C=C(Nc2ccc(OC)cc2)C(=O)N1c1ccc(OC)cc1` (configuration not stated) stands -0.651.
Compound `CCN(CC)S(=O)(=O)c1ccc2c(c1)nc(CCC(=O)Nc1ccccc1Cc1ccccc1)n2CC` yielded a z-score of 0.282.
In the case of `Cc1cccc(-c2noc(Cc3ccc(Cl)cc3)n2)c1`, the z-score was found to be 0.803.
In the case of `COc1cc(C(c2c(C)[nH][nH]c2=O)c2c(C)[nH][nH]c2=O)ccc1OC(C)C` it was -0.109; in that of `Cc1nc(C)c(C(=O)NNS(=O)(=O)c2ccccc2)s1`, -0.159.
As to `CC(C)OC(=O)c1cc2c(ccn2C)n1CC(=O)N(Cc1ccccc1)c1ccc(F)cc1`, the z-score is -0.00352.
In the case of `CCOc1ccc(-c2nnn(CC(=O)c3cc(OC)ccc3OC)n2)cc1` it was 1.52; in that of `CNC(=O)c1sc(-c2ccccc2)nc1C`, -0.396; in that of `COc1ccc(-c2nnn(CC(=O)c3ccc4c(c3)OCCO4)n2)cc1OC`, -0.406.
In the case of `Cc1cccc(Cn2c(C(C)O)nc3ccccc32)c1` (configuration not stated) it was -0.101.
For `COc1ccc(NC(=O)c2ccc(-n3cccn3)nc2)c(OC)c1`, the z-score is -0.0705.
As for `Oc1ccccc1C=NCC(O)c1ccccc1` (configuration not stated), the z-score is -0.103.
`CCC1CCCCN1Cc1ccc(OC)c(C)c1` (configuration not stated) displayed a z-score of 0.156.
`CC(C)n1c(SCC(=O)Nc2nc3c(s2)CCCC3)nc2c1c(=O)n(C)c(=O)n2C` had a z-score of -2.43.
In the case of `CCN(CC)c1nc2ccccc2[nH]1` it was -0.16; in that of `CC(C)Sc1oc(-c2ccco2)nc1S(=O)(=O)c1ccc(F)cc1`, -0.504.
`COC(=O)CC(=O)CSc1nc(C)cc(C)c1C#N`: the z-score is -0.322.
For the compound `O=C(Nc1cccnc1)c1coc(=O)c2ccccc12`, the z-score worked out at 0.0661.
Under `N/C(=N\OC(=O)/C=C/c1ccccc1)c1ccccc1` stands -0.187.
In the case of `COc1cccc(NC(=O)Cn2c(-c3cncs3)nc3ccccc32)c1` it was -0.793; in that of `Cc1sc2nc(C3CC3)nc(SCC(=O)N3c4ccccc4CC3C)c2c1C` (configuration not stated), -0.291; in that of `Cn1nc(-c2ccc(Cl)cc2)c2cc(C(=O)NCCCN3CCOCC3)sc21`, 0.386.
As to `COc1ccc(S(=O)(=O)Nc2ccc(O)c(Sc3ncn[nH]3)c2)cc1`, the z-score was -0.259.
Regarding `O=C(Oc1cccc(Nc2ncnc3ccccc23)c1)c1ccccc1Cl`, the z-score is -0.889.
`CNC(=S)N/N=C/c1c(C)nn(-c2ccccc2)c1Cl` yielded a z-score of 0.653.
In the case of `CC(C)CNC(=S)NNC(=O)c1ccc2c(c1)OCO2` it was -0.0533; in that of `O=C(O)Cn1cc2c(n1)CCCCC2`, -0.117; in that of `COc1ccc2c(c1)C=CC1(O2)N(CCO)c2ccccc2C1(C)C` (configuration not stated), -0.194.
In the case of `Cc1nnc(NC(=O)c2ccc3c(c2)C(=O)N(CCC(C)C)C3=O)s1` it was 0.243; in that of `CCOC(=O)C(NC(=O)N(C)C)(Nc1sc(C)c(CC)c1C#N)C(F)(F)F` (configuration not stated), -0.268.
Under `CCOc1cc(CNc2ccc(OC)cc2)cc(Br)c1OCC(=O)NC(C)(C)C` stands 0.0402.
Consider `CC(C)NC(=O)c1ccccc1S(=O)c1ccccc1C#N` (configuration not stated), for which the z-score is -0.193.
Compound `COc1ccc(OC)c(S(=O)(=O)Nc2c(F)cccc2F)c1` gave a z-score of -0.268.
The compound `Cc1ccc(/C=C/C(=O)Nc2cccc3ncccc23)o1` came in with a z-score of -0.328.
In the case of `O=[N+]([O-])c1cccc2ccc(/C=C/c3cccc(Br)c3)nc12` it was -0.182; in that of `O=C(Oc1cccc2ccccc12)c1ccncc1`, -0.635; in that of `Cc1ccc(S(=O)(=O)Nc2ccc(C(=O)OCC(=O)N(CCC#N)c3ccccc3)cc2)cc1C`, -0.0779.
Under `Cc1cc(C)c2c(-n3cccc3)n[nH]c2n1` stands -0.122.
